Assay results reported in the supplement of paper PMC10126150.
Values marked as one replicate rest on one cluster of the flow cell; about a third of the high ones do not repeat.

tested on: ATP; assay: switch fluorescence ratio, 500 uM ATP over buffer (Cy3 cluster intensity, sum of 5 cycles each) (fold (ratio)); higher = stronger signal-on switching upon ATP binding; sequences stand for … in TCGTCGGCAGCGTCAGATGTGTATAAGAGACAGTTTTTTTTTTTTTTTTTTTTTTTTT…TC; settings: aptamer strand: ATP DNA aptamer (quencher-CACCTGGGGGAGTATTGCGGAGGAAGG + anchor), 100 nM annealed; ATP concentration: 500 uM; one replicate
How it was run: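 Values give the fluorescence ratio for each switch-domain sequence, averaged from per-cluster ratios of summed target-cycle to summed buffer-cycle Cy3 intensity. The Cy3-labelled switching-strand clusters sat on a modified Illumina MiSeq flow-cell, were annealed to 100 nM quencher-labelled ATP aptamer, and were imaged in selection buffer, then after 15 min with 500 uM ATP at 22 °C. Five cycles ran with NaOH stripping and re-annealing between them, and clusters outside 100-1000 RFU were excluded.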
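Note: ATP exposure 15 min at 22 °C before imaging.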

Sequence	switch fluorescence ratio
TAAGTAACCA	1.05
TAAGTAATTG	1.05
TAAGTAGAAT	0.968
TAAGTCATTT	0.993
TAAGTCGACT	1.02
TAAGTGATCA	1.04
TAAGTGGTCT	1.02
TAAGTGTCTT	0.973
TAAGTTAATT	1.05
TAATAACCGA	1.13
TAATAACCGT	1.01
TAATAAGAAT	0.977
TAATAAGGCC	0.97
TAATAAGTTG	1.03
TAATAATTG	1.02
TAATACACCG	1
TAATACTTGT	0.933
TAATAGAAAC	0.954
TAATAGCCCG	1
TAATAGCGAT	1.07
TAATAGGAAT	0.958
TAATAGGCTA	1.01
TAATAGTCTT	0.991
TAATATTTGC	1.04
TAATCACGGT	1.04
TAATCCTTT	1

Sequence	switch fluorescence ratio
TAATCGACTC	0.994
TAATCGAGAG	1.01
TAATCTGACT	1.07
TAATGATGTG	1.02
TAATGCAGAC	1.24
TAATGCAGTC	0.959
TAATGCCCCG	0.974
TAATGCGAGC	1.58
TAATGCGTAG	0.948
TAATGCTCTA	0.983
TAATGGCTTT	1.05
TAATGGGAAT	0.997
TAATGTGCGA	1.01
TAATGTTTTC	1.03
TAATTAAAAA	0.993
TAATTAATAA	1.05
TAATTATAGG	0.998
TAATTATATC	0.999
TAATTCCATG	1.05
TAATTTATAG	0.969
TAATTTCGGC	1.04
TAATTTGACT	1.01
TAATTTTATC	0.99
TACAAAAGTT	1.03
TACAAACGTT	1.15
TACAAAGCCT	1.14

Sequence	switch fluorescence ratio
TACAAAGGGC	1.03
TACAAATACG	1.58
TACAACTATG	0.995
TACAAGGGTT	0.951
TACAATATAG	1.06
TACAATGGT	1.02
TACACAGCG	1.06
TACACCGGGC	1.09
TACACGCACG	1.74
TACACGCGGC	1.17
TACACTGTTC	0.985
TACACTTAAT	1.03
TACACTTGCT	1
TACACTTTA	1.06
TACACTTTAT	0.999
TACAGATGTT	1
TACAGATTGT	1.05
TACAGCATTA	1.06
TACAGCGGA	1.04
TACAGCTGCT	0.98
TACAGGAA	1.01
TACAGGGCTA	0.988
TACAGGGTAC	1.08
TACAGTAACA	1.12
TACAGTATG	0.981
TACAGTGAAT	1.13

Sequence	switch fluorescence ratio
TACATAAGAC	1.09
TACATATTAC	1.11
TACATCCACC	1.19
TACATCCAGG	2.07
TACATCCGGC	1.12
TACATCTAAG	0.994
TACATGAAAG	1.01
TACATTCCCC	1.15
TACCAACACG	1.2
TACCACTTCG	1.07
TACCAGTAG	1.04
TACCAGTGTC	0.999
TACCCAGCAA	2.98
TACCCAGTTG	1.11
TACCCCGAAA	1.12
TACCCGGAAA	1.01
TACCCGGGGA	1.37
TACCGAAGCT	1.09
TACCGAAGGT	1.15
TACCGGATGT	1.03
TACCGGCGCA	1.3
TACCGGGGCA	0.987
TACCTACGAC	1.42
TACCTATCAC	1.48
TACCTGCGCG	1.04
TACCTTCTAC	1.87

Sequence	switch fluorescence ratio
TACGAAATTA	1.28
TACGAAGAGC	1.04
TACGAAGGT	1.02
TACGACCCGC	1.33
TACGACTTTT	0.959
TACGAGACGT	1.15
TACGAGGCAG	1.55
TACGAGTCAT	1.07
TACGAGTCG	0.978
TACGATAGGA	1.08
TACGATCAT	1.1
TACGCCACGG	1.59
TACGCCCCG	1.08
TACGCCCTAG	1.03
TACGCCTTCT	1.05
TACGCGTGAT	0.957
TACGCTAGAT	1.12
TACGGAAAAT	1.02
TACGGATCTT	1
TACGGATGGG	1.03
TACGGCAGCG	1.02
TACGGCGCGC	1.03
TACGGGCGA	1.03
TACGGGGCTT	4.13
TACGGGGTGG	0.976
TACGGTACAA	1.4

Sequence	switch fluorescence ratio
TACGGTACCT	1.54
TACGGTAGTC	1.01
TACGGTCGGT	0.981
TACGGTTTC	1.03
TACGTAGAT	1.04
TACGTAGGGA	1.06
TACGTCCAAT	1.07
TACGTCCTC	1.09
TACGTCTGAA	0.996
TACGTGGATG	0.994
TACGTGGGCT	0.988
TACGTGGGG	0.989
TACGTGGGGA	1.01
TACGTGGTCA	0.958
TACGTTGGTT	0.967
TACGTTGTAT	0.993
TACGTTTCG	0.998
TACGTTTTAG	0.976
TACTAAAGC	0.976
TACTAAAGG	1.01
TACTAATAAG	0.994
TACTACAGCG	1.03
TACTAGACGG	1.32
TACTAGAGCT	0.956
TACTAGCCGG	0.976
TACTAGGACC	1.08

Sequence	switch fluorescence ratio
TACTAGTTCA	0.99
TACTATGAAT	1.02
TACTCATGAG	0.933
TACTCATGG	1.05
TACTCCGAC	1.91
TACTCGCTAT	1.93
TACTCGGACT	1.06
TACTCGTAT	0.981
TACTGAGAA	0.997
TACTGAGACT	0.984
TACTGAGGAC	0.97
TACTGCCTCT	1.05
TACTGGAATT	1.03
TACTGGTT	1.02
TACTTACATG	1.28
TACTTATCAT	1.18
TACTTCCGTG	1.92
TACTTGTTTG	1.03
TACTTTCTGT	1.01
TACTTTGGTA	1.12
TACTTTTACG	1.1
TACTTTTTTG	1.01
TAGAAATGAG	0.991
TAGAACGTA	1.07
TAGAACTCCG	1.06
TAGAAGCACG	1.06

Sequence	switch fluorescence ratio
TAGAAGTGCC	0.999
TAGAATATGC	1.05
TAGAATCACA	0.99
TAGAATTATA	0.97
TAGACCCAC	1.32
TAGACGAAGA	0.974
TAGACGACGG	0.966
TAGACGGACA	1.19
TAGACGGGTA	0.98
TAGACGTGA	1.03
TAGACTCGGC	1.08
TAGACTTAGT	0.976
TAGAGACCGC	1.08
TAGAGCGAAC	1.05
TAGAGGACGG	0.995
TAGAGGGAGC	1
TAGAGGTAC	1.01
TAGAGTCGGG	1.02
TAGAGTGGAA	1.03
